Test results from PubChem BioAssay AID720536 (National Center for Advancing Translational Sciences (NCATS), 2013).
Screen size: about 1,600 compounds; about 650 (41%) were called active. So high a share suggests a set chosen from earlier hits. The inconclusive results got no clear call from the source; some entries with a clear call stand among them for comparison. Calls come from the whole dose curve; as a rule, active = well fitted inhibition curve with a large enough effect; inconclusive = small, poorly fitted or top-dose-only effect; inactive = no such curve, though single readings can be large or run the other way. No potency is given beside an inconclusive call; the fits are too rough.

Assay: qHTS for Inhibitors of TGF-b: CCL64 Cells Orthogonal Assay for Cherry Picks; note: nearly all actives have a fitted effect of over 65% in size;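 for activity, negative = inhibition: 0% = stimulated DMSO wells and full inhibition = unstimulated wells without TGF-beta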
Conditions: CCL64 CAGA-GFP reporter, TGF-b stimulated, GFP fluorescence, 18 h; activity, negative = inhibition: at 46.1 µM (top of the series)
Method in brief: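 CCL64 cells carrying a CAGA-GFP reporter (1000/well, DMEM with 1% FBS) were pre-incubated 2 h at 37 degrees C, given compound, then stimulated with 500 pg/mL TGF-beta for 18 h. Per-cell GFP fluorescence was summed per well.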
Potency is the fitted concentration of half-maximal effect; tags give direction and shape of the fitted curve.

SMILES | Potency | activity, negative = inhibition
CC(=O)Nc1cccc(-c2cc(NC=O)c3ncc(-c4cccc(C(C)=O)c4)n3c2)c1 | inconclusive [inhibitor, partial curve, poor fit] | 
CC(C)C[C@H]1CNC(=S)N1C[C@H]1CCCN1C[C@H](CC(C)C)N1C[C@H](Cc2ccc(O)cc2)N(CCc2ccccc2)C1=S | active: 23.1 µM | 
C/C(=N\NC(=O)COc1ccccc1-c1ccccc1)c1ccccn1 | inconclusive [inhibitor, partial curve, poor fit] | 
COc1ccc(NC(=S)N(CCCN2CCCC2)Cc2cccn2Cc2ccc(Cl)cc2)cc1Cl | inconclusive [inhibitor, single point] | 
O=C(NCC1CC1)c1ccc(Nc2nc3ccc(Br)cc3[nH]2)cc1 | inconclusive [inhibitor, single point] | 
C#Cc1ccc(NC(=O)C2(C)CCN2C(=O)c2ccccc2CCc2ccccc2)cc1 (centres undefined) | inconclusive [inhibitor, single point] | 
COc1cncc(-c2cnc3sc(NCCc4ccccn4)nn23)c1 | inconclusive [inhibitor, single point] | 
COc1cc(C2C3=C(COC3=O)Oc3cc4c(cc32)OCO4)ccc1O (centres undefined) | inconclusive [inhibitor, full curve, poor fit] | 
COc1cc(OC)cc(C(=O)NCCCCCCNC(=O)c2cc(OC)cc(OC)c2)c1 |  | inactive: 5.61%
CC(C)C[C@H]1CNC(=S)N1C[C@H]1CCCN1C[C@H](Cc1ccc(O)cc1)N1C[C@H](Cc2ccc(O)cc2)N(CCc2ccccc2)C1=S | active: 4.61 µM | 
O=C(CCNc1cccc(F)c1)c1cccc([N+](=O)[O-])c1 | inconclusive [inhibitor, single point] | 
Nc1cc2[nH]c(=O)c3ccccc3c2cc1[N+](=O)[O-] | inconclusive [inhibitor, partial curve] | 
O=C(c1[nH]c(C(F)(F)F)nc1-c1ccccc1)N1CCN(c2cccc(C(F)(F)F)n2)CC1 | active: 13 µM | 
CC1CN(c2nc3ccccc3nc2SCC(=O)Nc2cccc(C(F)(F)F)c2)CC(C)O1 (centres undefined) | inconclusive [inhibitor, single point] | 
CC(=O)Oc1ccc(N(C(C)=O)S(=O)(=O)c2cccs2)c2ccccc12 | inconclusive [inhibitor, single point] | 
O=C(CCC(=O)N1CCN(S(=O)(=O)c2ccc(Cl)cc2)CC1)NCc1cccc(C(F)(F)F)c1 |  | inactive: -42.6%
CCN(CC)S(=O)(=O)c1cccc(NC(=O)CCSc2ccc(Cl)cc2)c1 | active: 25.9 µM | 
CCn1c(CCCOc2ccc(Cl)cc2Cl)nnc1SCC(=O)Nc1cc(F)ccc1C |  | inactive: -16.4%
O=C(O)c1ccc(NC2=C/C(=N/S(=O)(=O)c3ccccc3)c3ccccc3C2=O)cc1 | active: 11.6 µM | 
CCOc1ccc(N/C(N)=N/c2nc(C)cc(C)n2)cc1 | inconclusive [inhibitor, single point] | 
Cc1ccc(-c2nc3ccc(Br)cn3c2Cc2ccccc2C(F)(F)F)cc1 |  | inactive: 2.1%
COc1cccc(/C=N/NC(=O)c2ccncc2)c1OC(=O)c1ccc(Br)cc1 | inconclusive [inhibitor, single point] | 

SMILES | Potency | activity, negative = inhibition
NC(=O)c1cccc(-c2ccnc3c2CC(C(=O)Nc2cccc(C(F)(F)F)c2)O3)c1 (centres undefined) |  | inactive: 7.16%
Cc1ccc(NC(=O)CN2CCC(Cc3ccccc3)CC2)cc1S(=O)(=O)N(C)C | inconclusive [inhibitor, single point] | 
Nc1nc(N)c2c(ccc3c2ccn3Cc2cccc([N+](=O)[O-])c2)n1 | inconclusive [inhibitor, single point] | 
Oc1c(CN2CCOCC2)cc(COCc2ccccc2)c2cccnc12 | active: 8.2 µM | 
Cc1ccc2nc(-c3ccccn3)c(Nc3ccccc3C)n2c1 | inconclusive [inhibitor, partial curve, poor fit] | 
Cc1ccccc1/C=C/C(=O)c1ccc([N+](=O)[O-])o1 | active: 4.11 µM | 
Cc1ccc(COC(=O)c2nn(C)c(=O)c3ccccc23)cc1 |  | inactive: 6.4%
CCc1nc(OCc2ccco2)c2sc3nc4c(cc3c2n1)COC(C)(C)C4 |  | inactive: -1.2%
OCC1(Cc2ccccc2)CCN(Cc2cnc(-c3ccc(Cl)cc3)nc2)CC1 |  | inactive: 0.322%
N#C/C(=N\Nc1ccc(Cl)cc1)C(=O)c1ccsc1 | active: 20.6 µM | 
CCOC(=O)c1c(-c2cccs2)csc1N |  | inactive: 4.73%
O=S(=O)(CC(CN1CCCCC1)N1CCCCC1)c1ccc2ccccc2c1 (centres undefined) | inconclusive [inhibitor, full curve, poor fit] | 
OCCCNc1nccc(-c2cc(Nc3cccc(Cl)c3)ncn2)n1 | active: 1.3 µM | 
CCN(c1ccccc1)S(=O)(=O)c1cc(C(=O)Nc2cccc(Cl)c2)ccc1F | active: 14.6 µM | 
CCOc1ccc(CCN2C(=S)N([C@@H](CC(C)C)CN3CCCC3CN3C(=S)NC[C@@H]3Cc3ccc(O)cc3)C[C@@H]2Cc2ccccc2)cc1 (some centres undefined) |  | inconclusive: -28.2% [inhibitor]
CCS(=O)(=O)c1ncc(Cl)c(C(=O)Nc2ccc(S(=O)(=O)N3CCC(C)CC3)cc2)n1 | active: 2.06 µM | 
CC(C)(C)c1ccc(Cn2c(=O)cnc3ccccc32)cc1 |  | inactive: -27.5%
CC(=O)Oc1ccc(-c2ccc(C(=O)Nc3cccc(S(=O)(=O)N4CCOCC4)c3)cc2)cc1 | inconclusive [inhibitor, single point] | 
CCC(C)NS(=O)(=O)c1ccc(S(=O)(=O)N2CC=C(c3ccc(F)cc3)CC2)cc1 (centres undefined) | inconclusive [inhibitor, single point] | 
CC(Oc1ccc(Cl)cc1Cl)C(=O)NC1=NN(c2ccccc2)C(=O)C1 (centres undefined) | inconclusive [inhibitor, single point] | 
CC(=O)Nc1ccc(S(=O)(=O)N2CCN(Cc3nc4sc(C)c(C)c4c(=O)[nH]3)CC2)cc1 |  | inactive: 16.4%
C=CC[C@H](CC(=O)N(CCO)Cc1ccccc1)C(=O)N[C@H](COC(=O)[C@@H](CC=C)Cc1ccc(F)cc1)Cc1c[nH]c2ccccc12 | inconclusive [inhibitor, single point] | 
